Read counts are not given, so values of variants with three or more changes are uncertain.
B1: CPEB3 Ribozyme (parent)
chain: UAACAGGGGGCCACAGCAGAAGCGUUCACGUCGCAGCCCCUGUCAGAUUCUGGUGAAUCUGCGAAUUCUGCUGUAUAUCUC

Variants of: B1
Assay: self-cleavage, relative activity (ratio to wild type); higher = more cleavage; in vitro, sequencing
In short: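 CPEB3 self-cleaving ribozyme mutant libraries were made by rounds of error-prone PCR, barcoded, and transcribed in vitro with T7 RNA polymerase for 5 hours at 37°C. Cleavage occurred during transcription and a 15 min DNase I step before EDTA stop. RNAs were reverse transcribed with template switching and Illumina-sequenced, with DNA sequencing mapping barcodes to variants. Relative activity is the variant's cleaved/total read fraction divided by wild type's (minimum 5 reads), averaged across three batches.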

| Variant | self-cleavage |
| --- | --- |
| A18G U26A A75G A77U | 0.17 |
| A18G U43C C62U | 0.23 |
| A18G U41C U48G U51A U60A G70C | 0.06 |
| A18G U26C C27U A28G G33C | 0.05 |
| A18G U26C A28G G33C | 0.17 |
| A18G U43C A56U U58C U74A | 0.07 |
| A18G U54C U58C U60C C62U U78C | 0.19 |
| A18U A20G G53A | 0.39 |
| A18G U48C U66C | 0.23 |
| A18U A20G A28G U49C U74A | 0.04 |
| A18G U26C A56U G61U A64G | 0.17 |
| A18G U69C U74C | 1.36 |
| A18G U41C U43A U69C | 0.73 |
| A18G U31G U43C A56G U58C U74A | 0.21 |
| A18G U51C A64U | 0.42 |
| A18G U26C C29A U41C U43C U49A A56U | 0.07 |
| A18G U41A U58C | 0.09 |
| A18G U31A A35G U41C | 0.63 |
| A18G U48C U58C | 0.29 |
| A18U A20G U25C U58A | 0.2 |
| A18G U26C A28G U31A | 0.21 |
| A18G U26C A28U U43C C44U U60C | 0.05 |
| A18G U41C U54A A57C U76C | 0.2 |
| A18G U43C U48C C62U | 0.14 |

| Variant | self-cleavage |
| --- | --- |
| A18G U43C A47G U49C C59U U67A | 0.07 |
| A18G U26A U48C U67C | 0.14 |
| A18G U41C U49C | 0.16 |
| A18G U49C U51A A64G | 0.16 |
| A18G U26C A35G A45C U72A | 0.06 |
| A18G U76C U78A | 0.53 |
| A18G U41A A56G | 0.31 |
| A18G U41C U54A A56U U80C | 0.48 |
| A18G U49G U78C | 0.87 |
| A18G U48C A56U A64U U66C U72A | 0.11 |
| A18G U41C U78C U80A | 0.38 |
| A18G U31C U41A | 0.34 |
| A18G U48C U74C U76C | 0.4 |
| A18G U51A U60C U66C | 0.29 |
| A18G U48C A57G | 0.79 |
| A18G U26C A57G | 0.31 |
| A18G U48C A56G U69C U72A | 0.21 |
| A18G U49C U67C | 0.11 |
| A18G U58C U60C U69G | 0.21 |
| A18G U41C G42A A45G U58A U76A | 0.37 |
| A18U A20G G42U | 0.39 |
| A18G U26A U74C | 0.87 |
| A18G U48A A56G | 0.09 |
| A18G U48C U78C | 0.39 |

| Variant | self-cleavage |
| --- | --- |
| A18G U31C U74A | 0.36 |
| A18G U26C U58A | 0.14 |
| A18G U26A U51A C62U A64G | 0.22 |
| A18G U48C A56G U60C U80C | 0.13 |
| A18G U69C U78C | 1.15 |
| A18G U26C U43G | 0.11 |
| A18G U26C U43C | 0.47 |
| A18G U74C U80C | 0.91 |
| A18G U41C U58C A64G U67A A75G | 0.1 |
| A18G U41C A77G | 0.64 |
| A18G U26G A35G U43C C59A U67C | 0.16 |
| A18G U51A A77U | 0.79 |
| A18G U41C U58C | 0.45 |
| A18G U48C U51C A57C U66C | 0.12 |
| A18G U48C U60C | 0.06 |
| A18G U26A U43A A56G C79A | 0.24 |
| A18G U26C U41C U49A U67G | 0.07 |
| A18G U58C U78C U80C | 0.19 |
| A18G U49A U72C U78C | 0.3 |
| A18G U41G U48C U49A U78C C81A | 0.2 |
| A18G U60A A75G | 0.34 |
| A18G U51A U60A U67G | 0.21 |
| A18G U31A U49C U51C | 0.1 |
| A18G U26G U54C | 0.11 |

| Variant | self-cleavage |
| --- | --- |
| A18G U43G U72A U78C | 0.15 |
| A18G U51A U66C | 0.25 |
| A18G U60A U72C | 0.19 |
| A18G U49C A57G | 0.22 |
| A18G U41A A45G U48A U69C | 0.4 |
| A18G U31C G52C U66C U69C | 0.11 |
| A18G U26C U60C U69C U72A | 0.27 |
| A18G U41C U43A U48C U51A U74G | 0.42 |
| A18G U31C A45C U49G | 0.31 |
| A18G U31C A64U U74C | 0.22 |
| A18G U26C A45U | 0.27 |
| A18G U41A A64G U74A | 0.08 |
| A18G U26A U51A A57G | 0.19 |
| A18G U66C U69C U78C | 0.44 |
| A18G U26A U43A | 0.19 |
| A18U A20G A45G A56G A77U U78C | 0.09 |
| A18G U43A A56G G63U | 0.74 |
| A18G U41C G46C U49C U58C U60A U80C | 0.12 |
| A18G U54C U67C U78G | 0.13 |
| A18G U51C U54A C59A | 0.31 |
| A18G U54C U60A U66C | 0.23 |
| A18G U26C U48C U60C | 0.41 |
| A18G U31C G73A | 0.59 |
| A18G U51A A65G U74A | 0.41 |

| Variant | self-cleavage |
| --- | --- |
| A18G U49A A56G | 0.19 |
| A18G U26C A45U U60C | 0.09 |
| A18G U48A U51A U67A A77U U80C | 0.13 |
| A18G U51A U72A | 0.32 |
| A18U A20G U25C U41C | 0.04 |
| A18G U51A A57G U76C | 0.25 |
| A18G U31A U72C A75U | 0.54 |
| A18G U54A U60A | 0.17 |
| A18G U67A U80C | 0.25 |
| A18U A20G G30A U41C U43A A57G U67C | 0.07 |
| A18G U60A G63A U69A U76C | 0.3 |
| A18G U49A A56G U60C A64G | 0.11 |
| A18G U31A A35G U54C U78C | 0.32 |
| A18G U41C U43C C50U | 0.31 |
| A18G U31C U43G | 0.07 |
| A18G U41A A57U | 0.07 |
| A18G U26C U78C | 0.13 |
| A18G U31A U78C | 0.32 |
| A18G U41C U43C U58G | 0.4 |
| A18G U49C U78C | 0.17 |
| A18G U43C U51A | 0.39 |
| A18G U58C U72G | 0.13 |
| A18G U51C A56G | 0.25 |
| A18G U78A U80A | 1.04 |

| Variant | self-cleavage |
| --- | --- |
| A18G U48C A64G | 0.21 |
| A18G U43A A45G U49C A57G U60A A75U | 0.06 |
| A18G U67C U80C | 0.16 |
| A18G U26C U54C U66A U78C | 0.02 |
| A18G U41G A57G U66A | 0.08 |
| A18G U31C U78A U80C | 0.38 |
| A18G U49C U58C | 0.06 |
| A18G U31C C62U U66A U78C | 0.05 |
| A18G U31C A77G U80C | 0.26 |
| A18G U48C U49C U51C U60A | 0.11 |
| A18G U41G U43C | 0.46 |
| A18G U58C U67A | 0.23 |
| A18G U60C C62U | 0.29 |
| A18G U49C U60C | 0.37 |
| A18G U31A A64G | 0.18 |
| A18G U31C U51C G52C U66C | 0.15 |
| A18G U60A U66C | 0.29 |
| A18G U41C C50G C68U | 0.14 |
| A18G U67A C71G | 0.3 |
| A18G U66C U67C | 0.27 |
| A18G U60A C68U | 0.23 |
| A18G U58C U72A U78A | 0.17 |
| A18G U48C A77U U78C | 0.24 |
| A18G U41C U43C U69C U80C | 0.31 |

| Variant | self-cleavage |
| --- | --- |
| A18G U58C A75G U76C | 0.13 |
| A18G U26G A28U A45U | 0.06 |
| A18G U26C A28U | 0.27 |
| A18G U43C U48C | 0.38 |
| A18G U26C U76C | 0.2 |
| A18G U41C A45G U67A | 0.21 |
| A18G U54G U66C | 0.29 |
| A18G U48C G52A | 0.21 |
| A18G U41A U72C U80A | 0.25 |
| A18G U51C A65U U69C | 0.16 |
| A18G U51A U66C U67A | 0.15 |
| A18G U76C U80G | 1.11 |
| A18G U48C U58C U69C U72C U78C | 0.15 |
| A18G U43A U72C U74C | 0.91 |
| A18U A20C C32G | 0.06 |
| A18G U26C U72C | 0.35 |
| A18G U54C U58C U69G U72C C79U | 0.06 |
| A18G U54C U58C | 0.25 |
| A18U A20G A21G U69A U78C | 0.34 |
| A18U A20G A28G C32A | 0.14 |
| A18G U54A A57G U60A | 0.37 |
| A18G U41C U60C U76C | 0.24 |
| A18G U51A A57U U72A U78C | 0.1 |
